# According to paper PMC4336329 (PLoS ONE, 2015):
# About 2,200 (0.71%) of roughly 310,000 compounds showed an effect of 50% or more. Effects have a minus sign here. Some of the results follow.
# Target: human ether-à-go-go-related gene (hERG) potassium channel (human, UniProt Q12809)
# Test: primary screen, population patch clamp on CHO cells stably expressing hERG
# Sequence of human ether-à-go-go-related gene (hERG) potassium channel (Q12809 whole entry, looked up): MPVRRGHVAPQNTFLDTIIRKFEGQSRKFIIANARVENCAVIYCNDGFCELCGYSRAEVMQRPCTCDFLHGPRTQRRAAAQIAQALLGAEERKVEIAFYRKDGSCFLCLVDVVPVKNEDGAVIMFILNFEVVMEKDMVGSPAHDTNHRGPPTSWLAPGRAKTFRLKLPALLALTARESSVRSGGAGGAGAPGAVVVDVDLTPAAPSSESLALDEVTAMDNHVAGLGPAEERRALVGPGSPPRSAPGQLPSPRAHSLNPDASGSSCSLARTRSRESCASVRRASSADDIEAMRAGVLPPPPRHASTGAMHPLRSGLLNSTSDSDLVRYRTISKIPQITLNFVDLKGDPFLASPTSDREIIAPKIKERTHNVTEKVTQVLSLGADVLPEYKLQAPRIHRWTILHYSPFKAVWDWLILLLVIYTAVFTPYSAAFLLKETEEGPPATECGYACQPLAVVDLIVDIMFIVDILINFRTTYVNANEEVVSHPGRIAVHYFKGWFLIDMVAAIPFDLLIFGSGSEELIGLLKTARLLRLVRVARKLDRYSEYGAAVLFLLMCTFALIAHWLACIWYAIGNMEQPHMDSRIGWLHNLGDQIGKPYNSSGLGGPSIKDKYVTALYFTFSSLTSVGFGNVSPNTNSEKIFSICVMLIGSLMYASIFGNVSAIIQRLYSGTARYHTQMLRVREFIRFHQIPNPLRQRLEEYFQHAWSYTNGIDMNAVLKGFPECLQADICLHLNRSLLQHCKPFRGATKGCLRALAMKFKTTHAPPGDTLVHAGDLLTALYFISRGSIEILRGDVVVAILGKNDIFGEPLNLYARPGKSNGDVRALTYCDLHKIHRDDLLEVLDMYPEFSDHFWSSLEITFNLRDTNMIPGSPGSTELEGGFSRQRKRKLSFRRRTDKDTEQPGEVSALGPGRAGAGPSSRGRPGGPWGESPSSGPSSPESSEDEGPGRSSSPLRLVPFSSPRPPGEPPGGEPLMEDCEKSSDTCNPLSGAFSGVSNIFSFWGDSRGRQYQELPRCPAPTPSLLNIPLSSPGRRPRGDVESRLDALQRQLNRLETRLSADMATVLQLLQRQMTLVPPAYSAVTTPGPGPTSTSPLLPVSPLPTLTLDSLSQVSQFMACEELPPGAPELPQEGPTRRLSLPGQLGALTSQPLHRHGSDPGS
row,SMILES,"hERG current change (%, negative = inhibition) at 1uM"
1,Cc1ccc(S(=O)(=O)NC(C(=O)OCC(=O)NC(=O)c2cccn2C)C(C)C)cc1 (stereo not shown),-10.8%
2,CC12CCC(C1)C(C)(C)C2NS(=O)(=O)c1ccc(F)cc1 (stereo not shown),10.4%
3,COc1ccc(N2C(=O)c3ccccc3NC23C(=O)N(C)c2ccccc23)cc1 (stereo not shown),-4.05%
4,CCOc1ccc(-c2noc(CCC(=O)NC3CCCCC3)n2)cc1OC,11.7%
5,NS(=O)(=O)c1ccc(CCNS(=O)(=O)Cc2ccc(Cl)cc2)cc1,12%
6,O=C(NCCN1CCOCC1)c1cccnc1SCc1ccccc1Cl,6.95%
7,CS(=O)c1nc(-c2ccc(Br)cc2)cc(-c2ccccc2)c1C#N (stereo not shown),8.96%
8,CCOC(=O)c1c(NC(=O)C2CC2)sc2c1CC(C)(C)OC2,-1.65%
9,Cc1cccc(C(=O)NCCNC(=O)c2ccccn2)c1,8.51%
10,O=C1N=C(N2CCCC2)CN1c1ccccc1,13.8%
11,C/C=C(\NC(C)=O)c1ccccc1,13.5%
12,CN1CCC(N(C)C(=O)c2ccc(Cl)c(S(=O)(=O)N3CCCCC3)c2)CC1,-5.25%
13,O=C(CCCn1nnnc1CN1CCOCC1)N1CCC(c2ccc(F)cc2)C1 (stereo not shown),-0.382%
14,Cn1c2ccc(F)cc2c2nc3ccccc3nc21,-7.48%
15,COc1cc2c(cc1OC)-c1nc3ccccc3c(=O)n1C(C)(C)C2,-1.56%
16,COc1cccc(NC(=O)CSc2nc(O)c(C)c(=O)n2-c2ccc(C)cc2)c1,21.4%
17,O=C1C(Cl)=C(N2CCCC2)C(=O)N1c1ccc(F)cc1,9.35%
18,CCN(CC(=O)Nc1cc(Cl)ccc1C)C(=O)CSCc1c(C)noc1C,17%
19,CCOC(=O)c1cnn(-c2nc(-c3ccc(F)cc3)cs2)c1C(F)(F)F,-7.69%
20,O=C(NCCC1=CCCCC1)c1cnccn1,10.3%

row,SMILES,"hERG current change (%, negative = inhibition) at 1uM"
1,COc1ccc2nc(N3CCCC3)c(C#N)cc2c1,5.19%
2,Cc1coc2cc3oc(=O)c(CCC(=O)NCCCN4CCOCC4)c(C)c3cc12,11%
3,OC(CN1CCN(c2ccccn2)CC1)Cn1c2ccccc2c2ccccc21 (stereo not shown),-15%
4,CCn1c(SCc2ccccc2)nnc1C1CCCCC1,2.55%
5,N#Cc1c(-c2ccccc2)nc(SCC(=O)N(c2ccccc2)c2ccccc2)[nH]c1=O,8.6%
6,O=C(CN1CCOCC1)NCc1ccccc1Cl,18.6%
7,COc1ccc(C)cc1N(CC(=O)N1CCc2ccccc2C1)S(C)(=O)=O,7.35%
8,Cc1ccc(NC(=O)CSc2nc3ccccc3c(=O)n2CCCC(=O)NCCCN2CCOCC2)cc1C,-29.3%
9,O=C(O)C(=O)O.c1ccc(CNC2=NCCCC2)cc1,10.5%
10,Cc1nc(-c2ccc(F)cc2)c(CC(=O)N2CCN(S(=O)(=O)c3ccccc3Br)CC2)s1,-3.1%
11,Cc1c(C(=O)N2CCN(c3ccc(F)cc3)CC2)sc2nc(-c3ccccc3)cn12,-2.42%
12,CC(Oc1ccc(Cl)cc1Cl)C(=O)OCn1nnc2ccccc2c1=O (stereo not shown),6.26%
13,O=C1NC2(CCCCCC2)N=C1c1ccc(Br)cc1,12.9%
14,Cc1cccc(N2Cc3ccccc3C2=NC(=O)c2ccc(Cl)nc2)c1,1.49%
15,CC(=O)N=Cc1c(C)c(C#N)c(=O)n(C)c1O,12.6%
16,CCOn1c(=O)c(-c2ccc(F)cc2)[n+]([O-])c2ccccc21,10.9%
17,CCc1c(C2(O)CCCCC2)[nH]c2cc(C(F)(F)F)ccc12,8.66%
18,CC1CCC2(CC1)NC(=O)N(NC(=O)c1cc3ccccc3o1)C2=O (stereo not shown),9.59%
19,CC(C)[C@H](NS(=O)(=O)c1ccccc1)C(=O)OCC(=O)Nc1ccccc1Sc1ccccc1,6.4%
20,Cc1ccc2nc(NC(=O)C3CCCN(S(=O)(=O)c4cccc5nonc45)C3)sc2c1 (stereo not shown),11%

row,SMILES,"hERG current change (%, negative = inhibition) at 1uM"
1,O=C(O)Cc1ccc(NC(=O)C2CC=CCC2C(=O)O)cc1 (stereo not shown),23.9%
2,O=C(Nc1ccc2c(c1)OCCO2)C1CCCN1S(=O)(=O)c1ccc(Cl)cc1 (stereo not shown),11%
3,OC(c1ccccn1)c1c[nH]c2ccccc12 (stereo not shown),14.2%
4,OC1(C#Cc2c(-c3ccsc3)oc3ccc(N4CCOCC4)cc23)CCCCC1,12.3%
5,Cc1ccccc1NC(=O)N1CCCC(c2nc(-c3ccc(C(C)C)cc3)no2)C1 (stereo not shown),6.67%
6,Cc1nnc(-c2ccc(Cl)cc2)nc1NCCN(C)C,-1.19%
7,CCCCn1c(=O)[nH]c(=O)c2c1nc(-c1ccc(OCCC)c(OCC)c1)n2C,10%
8,CCCCCc1nc(-c2nonc2N)no1,17.3%
9,COc1cc(OC)c(N(C)S(=O)(=O)c2cccc(C(=O)OCc3c(C)noc3C)c2)cc1Cl,11.8%
10,Cc1ccc(SCc2nc(-c3ccccn3)no2)cc1,-2.03%
11,CN(CC(=O)Nc1ccc(F)cc1)C(=O)c1cccc(NS(=O)(=O)c2ccccc2)c1,0.929%
12,OCn1ncn(-c2ccccc2)c1=S,13.8%
13,O=c1[nH]cc(N=Cc2cc(Cl)cc(Cl)c2O)c(=O)[nH]1,12.3%
14,COc1ccc(Nc2cc(C(=O)NCCCN3CCN(C)CC3)c3ccccc3n2)cc1OC,4.7%
15,CCN(CC)C(=O)c1n[nH]c(=O)c2ccccc12,7.4%
16,CCCOc1ccc(C(=O)N/N=C/c2ccc(-c3ccc(S(=O)(=O)Nc4ncccn4)cc3)o2)cc1,10.7%
17,CC(=O)c1cc2c(cc1NC(=O)c1ccc(C)cc1)OCO2,1.78%
18,CCOc1ccc(CCNC(=O)COC(=O)c2ccc(S(=O)(=O)N3CCCC3)cc2)cc1OCC,22.4%
